The results in this text go back to the RNAGym collection of RNA variant scans (doi:10.1073/pnas.2313332121).

This sample is rich in variants without activity. Some results are limits rather than exact numbers.

The labels stand for the following.
B1: TPR 5TU (parent)
chain: GGAUCUUCUCGAUCUAACAAAAAAGACAAAUCUGCCACAAAGCUUGAGAGCAUCUUCGGAUGCAGAGGCGGCAGCCUUCGGUGGCGCGAUAGCGCCAACGUUCUCAACUAUGACACGCAAAACGCGUGCUCCGUUGAAUGGAGUUUAUCAUG

This data set covers variants of B1. The data set is described as follows: polymerase ribozyme fitness, log enrichment relative to wild type (log ratio); higher = more active; in vitro selection for triplet polymerase activity. Put shortly:
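Fitness measures genotype enrichment against wild-type enrichment on a logarithmic scale, with inverse-variance-weighted averaging of replicates. The logarithm is base 2, and genotypes were kept only with ≥10 input reads and ≥1 read per output in Illumina sequencing. The sequenced libraries came from one triplicate in vitro selection round, including frozen incubation at −7 °C, of PCR-built, transcribed mutant libraries of each subunit of a heterodimeric triplet polymerase ribozyme.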
GGUUCUUCUCGAGCUAACAUAAAAGACAAAUCUGCCACAAAGCUUGAGAGCAUCUUCGGAUGCAGAGGCGGCACCCUUCGGUGGCGCGAUAGCGCCAACGUUCUCAACUAUGACACGCAAAACGCGUGCUCCGUUGAAUGGAGUUUAUCAUG [A3U U13G A20U G74C]: the “polymerase ribozyme fitness (log ratio)” value was ≤ -4.2.

As to GGUUCUUCUCGAUCUAACAAAAAAGACAAAUCUGCCACAAAGCUUGAGAGCAACUUCGGAUGCAGAGGCGGCAGCCUUCGGUGGCGAGAUAGCGCCAACGUUCUCUACUAUGACACGCAAAACGCGUGCUCCGUUGAAUGGAGUUUAUCAUG [A3U U53A C87A A106U], the “polymerase ribozyme fitness (log ratio)” value was ≤ -4.2.

Regarding GGUUCUCCUCGAUCUCACAAAAAAGACAAAUCGGCCACAAAGCUUGAGAGCAUCUUCGGAUGCAGAGGCGGCAGCCUUCGGUGGCGCGCUAUCGCCAACGUUCUCAACUAUGACACGCAAAACGCGUGCUCCGUUGAAUGGAGUUUAUCAUG [A3U U7C A16C U33G A89C G92U], the “polymerase ribozyme fitness (log ratio)” value is ≤ -4.2.

Regarding GGUUCUUCUCGAUCUAACAAAAAAGACAAAUCUGCCACAAAGCUUGAGAGCAAUUUCGGAUGCAGAGGCGGCAGCCUUCCGUGGCGCGAUAUCGCCAACGUUCUCAACUAUGACACGCAAAACGCAUGCUACGUUGAAUGGAGUUUAUCAUG [A3U U53A C54U G80C G92U G126A C131A], the “polymerase ribozyme fitness (log ratio)” value is ≤ -4.2.

Turning to GGUUCUGCUCGAUCUAACAAAAAAGACAAAUCUGCCACAAAGCUUGAGAGCAUCUUCGGAUGCAGAGGCGGCAGGCUUCGGUGGGGCGAUAGCGCCAACGUUCUCAACUAUGACACGCAAAACGCGUGCUCCGUUGAAUGGAGUUUAUCAUG [A3U U7G C75G C85G], the “polymerase ribozyme fitness (log ratio)” value is ≤ -4.2.

For the variant GGUUCUUCUCGAUCGAACCAAAAAGACAAAUCUGCCACCAAGCGUGAGAGCAUCAUUGGGUGAAGAGGCGGCAGCCUUCGGUGACGCGAUAGCGCCAACGUUCUCAACUUUGACACGCACAACGCGUGCUCCGUUGAAUGGAGUUUAUCAUG [A3U U15G A19C A39C U44G U55A C57U A60G C63A G84A A110U A120C], the “polymerase ribozyme fitness (log ratio)” value was ≤ -4.2.

As for GGUUCUUCUCGAUCUAACAAAAAAGACAAAUCUGCCACAAAGCGUGAGAGCGUCUUCGGAUGCAGAGGCGGCAGCCUUAGGUGGCGCGAUAGCGCCAACGUUAUCAACUAUGACACGCAAUACGCGUGCUCCGUUGAAUGGAGUUUAUCAUG [A3U U44G A52G C79A C103A A121U], the “polymerase ribozyme fitness (log ratio)” value is ≤ -4.2.

As for GGUUCUUCUCGAUCUAACAAAAAAGACAAAUCUGCCACAAAGCUAGAGAGCAUCUUCGGAUGCAGAGGCGGCAGCCUUCGGUGGCGCGAUAGCGCAAACGUUCUCAACUAUGACACGCAAAACGCGUGCUCCGUUGAAUGGAGUUUAUCAUG [A3U U45A C96A], the “polymerase ribozyme fitness (log ratio)” value is -3.51.

Take GGUUCUUCUCGACCUAACAAAAAAGACAAAUCUGCCACAAUGCUUGAGAGCAUCUUCGGAUGCAGAGGCGGCAGCUUUCGGUGGCGCGAUAGCGCCAACGUUCUCAACUAUGACACGCAAAAUGCGUGCUCCGUUGAAUGGAGUUUAUCAUG [A3U U13C A41U C76U C123U]: the “polymerase ribozyme fitness (log ratio)” value is -2.89.

In the case of GGUUCUUCACCAUCUAACAAAAAAGACAAAUCUGACGCAAAGCUUGAGACCAUCUUCGGAUGCAGAGGCGGCAGCCUUCGGUGGCGCGAGAGCGUCAACGGUCUCAACUAUGACAUGCAAAACGCGUGCUCCGUUGAAUGGAGUUUAUCAUG [A3U U9A G11C C35A A37G G50C U90G C95U U101G C116U], the “polymerase ribozyme fitness (log ratio)” value is ≤ -4.2.

In the case of GGUUCUUCCCGAUCUAACAAAAAAGACAAAUCUGCCACAAAGCUUGAGAGCAUCUUCGGAUGCAGAGGCGGCAGCCUUCGGUGGAGCGAUAGCGCCAACGUUCUCAACUAUGACACGCAAAACGCGUCCUCCGUUGGAUGGAGUUUAUCUUG [A3U U9C C85A G128C A137G A150U], the “polymerase ribozyme fitness (log ratio)” value was ≤ -4.2.

For the variant GGUUCUGCUCGAUCUAACAAAAAAGACGAAUCUGCCACAAAGCUUGAGAGCAUCUUCGGAUGCAGAGGCGGCAGCCUUCAGUGGCGAGAUAGCGCCUACGGUCUCAACUAUGACACACAAAACGCGUGCUCCGUUGAAUGGAGUUUAUCAAG [A3U U7G A28G G80A C87A A97U U101G G117A U151A], the “polymerase ribozyme fitness (log ratio)” value is ≤ -4.2.

In the case of GGUUCUCCUCGAUCUAACAAAAAAGACAAAUCUGCCACAAAGCUUGAGAGCAUCUACCGCUGCAGAGGCCGCAGCCUUCGGUGGCGCAAUAGCACCAACGUUCUCAACUAUGACUCGCAAAACGCGUGCUCCGUUGAAUGGAGUUUAUCAUG [A3U U7C U56A G58C A60C G70C G88A G94A A115U], the “polymerase ribozyme fitness (log ratio)” value is ≤ -4.2.

Turning to GGUUCUUCUCGAUCUAACAAAAAAGACAAAUCUGCCACAAAGCUUGAGAGCAACUUCGGAUGCAGAGGCGGCAGCCUUCGGCGGCGGGAUAGCGCUAACGUUCUCAACUAUGACACGCAAAACGGGUGCUCCGUUGAAUGGAGUUUAUCAUG [A3U U53A U82C C87G C96U C125G], the “polymerase ribozyme fitness (log ratio)” value is ≤ -4.2.

As for GGUUCUUCACGAUCUAACAAAAAAGACAAAUCUGCCACAAAGCUUGAGAGCAUCUUUGGAUGCAGAGGCGGCAACCUUCGGUGGCGCGAUAGCGCCAACGUUCUCAACUAUGACACGCAAAACUCGUGCUCCGUUGAGUGGAGUUUAUCAUG [A3U U9A C57U G74A G124U A138G], the “polymerase ribozyme fitness (log ratio)” value was ≤ -4.2.

As to GGUUCUUCUCGAUCUAACAAAAAAGACAAAUCUGCCACAAAGCAUGAGAGCAUCUUCCGAUGCAGAGGCGGCAGCCUUCGGUGGAGCGAUAGCGCCAACGUUUUCAACUAUGACACGGUAAACGCGUGCUCCGUUUAAUGGAGUUUAUCUUG [A3U U44A G58C C85A C103U C118G A119U G136U A150U], the “polymerase ribozyme fitness (log ratio)” value is ≤ -4.2.

GGUUCUUCUCGAUCUAACAAAAAAGACAAAUCUGCCACAAAGCUUGAGAGCAUCAUCGGAUGCAGUGGCGGCAGCCUUCGCUGGCGCGAUAGCGCUAACGUUCUCAACUAUGACACAAGAAACGCGUGCUCCGUUGAAUGGAGUUUAUCAUG [A3U U55A A66U G81C C96U G117A C118A A119G]: the “polymerase ribozyme fitness (log ratio)” value is ≤ -4.2.

As for GGUUCUACUCGAUCUAACAAAAAAGACAAAUCUGCCUCAAAGCUUGAGAGCAUCUUCGGAUGCAGAUGCGGCAGCCUUCGGUGGCGCGAUCGCGCCAACGUUCUCAACUAUGACACGCAAAACGCGUGCUCCGUUGAAUGGAAUUUAUCAUG [A3U U7A A37U G67U A91C G143A], the “polymerase ribozyme fitness (log ratio)” value was ≤ -4.2.

Regarding GGUUCUUCUCGAUCUAACAAAAAAGACAAAUCUGCCACAAAGCUUGAGAGCAUCAUCGGAUGCAGAGGCGGCAGCCUUCGGUGGCGCGAUAGCGCCAACGUUCUCAACUAUGACACGCAAAACGCGUGCUCCGUUGAAUGGAGUUUAUCAUG [A3U U55A], the “polymerase ribozyme fitness (log ratio)” value was -0.84.
